# According to the supplement of paper PMC4166925:
# ± gives the standard deviation of the averaged measurements. Over roughly 33,000 sequences, “E-score (dimensionless, -0.5 to 0.5)” has its median near -0.046; the highest 2% begin near 0.36. The list shows a part of the results.
# Tested on: T1, SpTbr T-box DNA-binding domain (GST fusion)
# T1 sequence: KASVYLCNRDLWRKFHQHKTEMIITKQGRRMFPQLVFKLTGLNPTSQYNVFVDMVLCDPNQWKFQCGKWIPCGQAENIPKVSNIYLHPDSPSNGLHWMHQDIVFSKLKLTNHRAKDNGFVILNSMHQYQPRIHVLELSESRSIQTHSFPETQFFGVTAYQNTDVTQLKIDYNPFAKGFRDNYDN
# Assay: PBM E-score of 8-mer (E-score (dimensionless, -0.5 to 0.5)); Tbr is Tbrain of the sea star Patiria miniata (Pm) or the sea urchin Strongylocentrotus purpuratus (Sp); higher = stronger binding preference; most listed sequences are background and not binding sites
# Details: the construct has about 5 more residues each side
# Summary of the method: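 Using the Universal PBM Analysis Suite, every ungapped 8-mer received an enrichment E-score averaged over duplicate arrays. Probe intensities came from double-stranded Universal Agilent oligonucleotide arrays incubated with 200 nM GST-fused Tbr T-box DNA-binding domain in PBS (pH 7.5). That protein was expressed in BL21 E. coli at 20 °C and purified by glutathione affinity chromatography.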
row,Sequence,PBM E-score of 8-mer
1,GACAAAGC,0.0918 ± 0.026
2,AATGAGGG,-0.268 ± 0.015
3,CTTGCACA,0.119 ± 0.039
4,CGCGGCAG,0.0441 ± 0.043
5,ACTGTTTC,-0.0432 ± 0.0063
6,AGCCCGAC,-0.12 ± 0.0043
7,ACCTATCT,0.102 ± 0.034
8,GACCCCTA,-0.142 ± 0.008
9,GATCGAGC,-0.23 ± 0.068
10,AGCCTAAG,-0.157 ± 0.049
11,TATCGATA,-0.0181 ± 0.014
12,ACCTGGAT,-0.0186 ± 0.074
13,GGAGTAGA,-0.213 ± 0.031
14,ACGCGTAT,0.132 ± 0.0031
15,GTTGTCTA,-0.123 ± 0.027
16,ATCGACAG,0.286 ± 0.005
17,CACACAGA,0.0669 ± 0.045
18,AGCTGGTC,-0.207 ± 0.022
19,AACCTATA,-0.123 ± 0.024
20,CGTCTAAG,-0.0186 ± 0.15
21,ACTGTCCA,0.0295 ± 0.017
22,CCAAGACG,-0.0885 ± 0.023
23,CTTGTCGA,0.185 ± 0.0023
24,CAAACGAA,0.0634 ± 0.013
25,AGTGGTCA,0.133 ± 0.0063

row,Sequence,PBM E-score of 8-mer
1,ATGAGGTC,0.000435 ± 0.095
2,CCACCCGG,0.063 ± 0.014
3,AACAAACT,-0.04 ± 0.019
4,ACTCAAAG,-0.107 ± 0.039
5,CCTCGACC,0.0188 ± 0.0052
6,CTCAGCGA,0.0708 ± 0.071
7,CCGGATGA,-0.298 ± 0.022
8,AAGCGTGA,0.415 ± 0.01
9,AGCAAGCC,-0.198 ± 0.008
10,ACATGCAG,-0.0712 ± 0.067
11,CTACCGAG,-0.07 ± 0.013
12,CTTTAATA,-0.218 ± 0.087
13,AGACAAAC,-0.0536 ± 0.013
14,CGTCGAAC,-0.15 ± 0.011
15,CTAGTGGC,0.119 ± 0.068
16,AACAGGTA,0.0912 ± 0.072
17,AATAGGCC,-0.249 ± 0.1
18,CGATCTCC,-0.0233 ± 0.053
19,TTTAGAAA,-0.0645 ± 0.028
20,CGGTTTAC,0.0711 ± 0.01
21,AGTCCTGA,-0.198 ± 0.011
22,GCTCTATA,-0.203 ± 0.014
23,AATGGACT,-0.104 ± 0.02
24,CTGACTGA,-0.195 ± 0.0035
25,AAAGTGGG,0.0835 ± 0.049

row,Sequence,PBM E-score of 8-mer
1,AATTATAT,-0.21 ± 0.1
2,CGCGCGAG,0.304 ± 0.036
3,AGAACAAA,-0.086 ± 0.039
4,CAGCTAGC,0.117 ± 0.0012
5,CACGAGAG,-0.0242 ± 0.12
6,AATGGGAT,-0.2243 ± 0.00058
7,GACCTGAA,0.0345 ± 0.0032
8,CTAATCTC,-0.0143 ± 0.027
9,TCAGCTAA,-0.0174 ± 0.025
10,CGCATGTC,0.0857 ± 0.014
11,GATACATA,-0.124 ± 0.0059
12,CGGAACCG,-0.2455 ± 0.0023
13,CGTAACCA,-0.108 ± 0.069
14,CCTTCCCC,-0.198 ± 0.14
15,ACACCAGA,0.254 ± 0.049
16,AAACGTTA,-0.0697 ± 0.051
17,CCAAGGGC,-0.0901 ± 0.039
18,AAAATCCG,0.0727 ± 0.055
19,ATACTATA,0.0149 ± 0.0097
20,AAAATCGA,-0.0432 ± 0.048
21,GCGTCTGA,-0.00579 ± 0.0016
22,CTGAGGCA,0.0573 ± 0.083
23,CGATGCGC,0.052 ± 0.031
24,CGTAAAAG,-0.0359 ± 0.073
25,AACGATAT,0.0227 ± 0.017

row,Sequence,PBM E-score of 8-mer
1,CAACTCAA,-0.0247 ± 0.11
2,TAGTCAAA,-0.232 ± 0.04
3,CATTGAGC,-0.016 ± 0.022
4,CGATCTTA,-0.0349 ± 0.0034
5,CGAAGAGC,-0.069 ± 0.0032
6,ACGGTCCT,-0.0863 ± 0.015
7,TTACGGAA,-0.136 ± 0.043
8,CTTAAGAC,-0.231 ± 0.0058
9,CCGCGTAA,-0.02 ± 0.05
10,ATGCGCTA,0.0416 ± 0.027
11,ATGATGGG,-0.119 ± 0.093
12,AGTGCCGG,0.228 ± 0.022
13,AACCGTGT,0.169 ± 0.029
14,ACGAGACG,-0.0243 ± 0.072
15,GTTTGCCA,0.0393 ± 0.092
16,AAACCCAT,-0.0208 ± 0.039
17,CACTAAGC,0.114 ± 0.058
18,AGCTTGAT,-0.107 ± 0.074
19,ATAGCAAG,0.09255 ± 0.00052
20,GCGTCAAC,0.3857 ± 0.0035
21,GTTAGTCA,0.036 ± 0.012
22,CACGCAAG,0.173 ± 0.036
23,ACTGCACC,-0.1368 ± 0.00017
24,CGGGGACA,-0.029 ± 0.038
25,CGAGGAGA,-0.137 ± 0.018

row,Sequence,PBM E-score of 8-mer
1,ACAGCGCG,0.253 ± 0.02
2,ATCTGTGC,-0.241 ± 0.069
3,AAGGCAAG,-0.00871 ± 0.069
4,AGGAAGTC,-0.143 ± 0.016
5,AAGTCAGT,-0.309 ± 0.0071
6,AGTAATGA,-0.0258 ± 0.039
7,CGCGCCTC,0.365 ± 0.039
8,GCCCGACC,-0.213 ± 0.054
9,AGTAGATA,-0.284 ± 0.013
10,AGTTGCCC,-0.0911 ± 0.072
11,AGCCCACC,-0.287 ± 0.027
12,GGGAAAAA,-0.0358 ± 0.093
13,ACATTGAT,0.0854 ± 0.025
14,CAGAGGTC,-0.0425 ± 0.0058
15,GAGGGCGA,0.0238 ± 0.078
16,CTGATTCC,-0.253 ± 0.0094
17,AAGCACGA,-0.0497 ± 0.059
18,CACGCCAC,0.228 ± 0.028
19,CGTCACGC,0.288 ± 0.028
20,AAAACAAA,-0.198 ± 0.0028
21,GCATTTAC,0.0233 ± 0.0032
22,AATAGTTG,0.0033 ± 0.019
23,CCCGATCC,-0.16 ± 0.014
24,ACACCAAA,0.315 ± 0.013
25,GCTGGAAC,-0.0219 ± 0.00053

row,Sequence,PBM E-score of 8-mer
1,GCACGTGC,0.312 ± 0.081
2,CGGATTCC,-0.115 ± 0.051
3,AGGTAACC,-0.0796 ± 0.049
4,GCCGACAA,0.161 ± 0.014
5,ATCTTTGA,-0.0984 ± 0.035
6,CTTCAGCA,0.0811 ± 0.022
7,AAGACTAG,-0.182 ± 0.17
8,GTCTTGAA,-0.0886 ± 0.1
9,AAGCCCGT,-0.195 ± 0.062
10,TAAAAACA,-0.0415 ± 0.032
11,GCACAGCC,-0.169 ± 0.0024
12,ACCCGATG,0.0574 ± 0.046
13,CCAAACGC,-0.041 ± 0.043
14,TGGGTAAA,-0.199 ± 0.038
15,AATGGGAG,-0.225 ± 0.045
16,ACGTTGTG,0.193 ± 0.03
17,CGGCGACA,0.296 ± 0.018
18,GAGAAATC,-0.106 ± 0.025
19,ACGTCTCC,-0.0957 ± 0.001
20,GACTCCGA,-0.234 ± 0.015
21,AATAAACA,0.129 ± 0.078
22,AGGTGGGA,0.433 ± 0.0055
23,GGCATATA,-0.249 ± 0.046
24,ACCGCTGA,-0.128 ± 0.016
25,CTAGGGTA,-0.263 ± 0.04

row,Sequence,PBM E-score of 8-mer
1,ACCTCGAC,0.142 ± 0.016
2,GTTCCAAA,-0.131 ± 0.076
3,AATAGCAG,0.00093 ± 0.029
4,AATCGGTG,-0.0579 ± 0.036
5,ATTCTATC,-0.189 ± 0.067
6,AGGACACC,0.323 ± 0.014
7,GATCATGC,-0.082 ± 0.021
8,CATTTCTC,0.2 ± 0.013
9,TGAGAAAA,0.22 ± 0.073
10,GCACTGCC,0.108 ± 0.058
11,AACCCCCA,-0.119 ± 0.032
12,AAACCGAT,-0.099 ± 0.01
13,CAGCGGCC,-0.0972 ± 0.037
14,ATGTGGTG,0.23 ± 0.052
15,CGTTATAG,-0.139 ± 0.021
16,GCGGCTCA,-0.0334 ± 0.022
17,ACAACAGA,-0.0586 ± 0.028
18,CGTACTTC,-0.182 ± 0.02
19,ATAGGCAG,-0.2 ± 0.035
20,ACATATCG,-0.0304 ± 0.055
21,TACCCGAA,-0.184 ± 0.022
22,CGCACCTA,0.43 ± 0.0064
